{"source": "patent US20240027454", "proteins": {"B1": {"name": "pancreatic porcine elastase (protein)", "chain": "VVGGTEAQRNSWPSQISLQYRSGSSWAHTCGGTLIRQNWVMTAAHCVDRELTFRVVVGEHNLNQNDGTEQYVGVQKIVVHPYWNTDDVAAGYDIALLRLAQSVTLNSYVQLGVLPRAGTILANNSPCYITGWGLTRTNGQLAQTLQQAYLPTVDYAICSSSSYWGSTVKNSMVCAGGDGVRSGCQGDSGGPLHCLVNGQYAVHGVTSFVSRLGCNVTRKPTVFTRVSAYISWINNVIASN"}}, "key": {"[1]": {"biological_target": "HEC-PEG200-N-propionyl-AAPF-RBB"}, "[2]": {"biological_target": "T1, AAPVA-RBB linked to poly-(N-acroyl-Boc-Lys-OH)-co-(acroyl-Cys(Trt)-OH)", "T1 chain": "AAPVX"}, "[3]": {"biological_target": "Fmoc-AAPF-aminoethyl-(Remazol Black B)-(N-acetyl)-ethylamide"}, "[4]": {"biological_target": "T2, AAAPVV-RBB linked through Jeffamine EDR 176 to polyacrylate quenched with N,N-dioctyl amine (not fully specified)", "T2 chain": "AAAPVX"}, "[5]": {"biological_target": "Fmoc-AAPV-{2-hydroxy-3-[1-(5-(N-RBB-methyl)1,2,3-triazolyl)}propylamide"}, "[6]": {"biological_target": "H-AAPV-{2-hydroxy-3-[1-(5-(N-RBB-methyl)1,2,3-triazolyl)}propylamide)"}, "[7]": {"biological_target": "T3, AAPVA-RBB linked through ethylenediamine-glycyl spacer to polyacrylate (not fully specified)", "T3 chain": "AAPVX"}, "Fmoc-APV-Indoxyl ester": {"biological_target": "T4, Fmoc-APV-Indoxyl ester", "T4 chain": "APV"}, "[8]": {"biological_target": "Fmoc-AAPV-4-naphthol ester"}, "[9]": {"biological_target": "Fmoc-AAPV-4-methoxy-1-naphthol ester"}, "Fmoc-AAA-indoxyl ester": {"biological_target": "T5, Fmoc-AAA-indoxyl ester", "T5 chain": "AAA"}, "[10]": {"biological_target": "T6, AAPVA-RBB linked to polymer, product of Step A of Example 62 after trifluoroacetic acid treatment (not fully specified)", "T6 chain": "AAPVX"}, "[11]": {"biological_target": "T7, 4-([4-(H-Ala-Ala-Pro-Val-Ala)amido N-piperazino]phenyl)-bis-(4-dimethyl-aminophenyl)-carbenium ion polyacrylamide (not fully specified)", "T7 chain": "AAPVX"}, "H-AAPVA-RBB": {"biological_target": "T8, H-AAPVA-RBB", "T8 chain": "AAPVX"}, "H-AAAPM-RBB": {"biological_target": "T9, H-AAAPM-RBB", "T9 chain": "AAAPX"}, "[12]": {"biological_target": "T10, Fmoc-AAPVAV-{2-hydroxy-3-[1-(5N-RBB-methyl)1,2,3-triazolyl)}propylamide", "T10 chain": "XAPVAX"}, "H-AAPFA-RBB": {"biological_target": "T11, H-AAPFA-RBB", "T11 chain": "AAPFX"}, "[13]": {"biological_target": "HEC-EDA-N-propionyl-AAPF-RBB"}, "[14]": {"biological_target": "AAPVA-RBB Bound to Paper Membrane"}, "[15]": {"biological_target": "T12, AAAPV-RBB linked through Jeffamine EDR 176 to polyacrylate quenched with N,N-dioctyl amine (not fully specified)", "T12 chain": "AAAPX"}, "[16]": {"biological_target": "T13, Fmoc-F-V-T(Bzl)-F- indoxyl ester (not fully specified)", "T13 chain": "FVTF"}, "[17]": {"biological_target": "T14, H-AAPVAV-{2-hydroxy-3-[1-(5-(N-RBB-methyl)1,2,3-triazolyl)}propylamide", "T14 chain": "AAPVAX"}, "H-AAPVAA-RBB": {"biological_target": "T15, H-AAPVAA-RBB", "T15 chain": "AAPVAX"}}, "data": [{"protein": "B1", "values": [{"measurement": "Porcine Elatase Cleavage", "setting": "[1]", "result": "++"}, {"measurement": "Porcine Elatase Cleavage", "setting": "Fmoc-AAPF-RBB", "result": "++"}, {"measurement": "Porcine Elatase Cleavage", "setting": "CMC 9M31F-AAPF-RBB", "result": "++"}, {"measurement": "Porcine Elatase Cleavage", "setting": "[2]", "result": "+"}, {"measurement": "Porcine Elatase Cleavage", "setting": "[3]", "result": "+"}, {"measurement": "Porcine Elatase Cleavage", "setting": "[4]", "result": "+++"}, {"measurement": "Porcine Elatase Cleavage", "setting": "[5]", "result": 0}, {"measurement": "Porcine Elatase Cleavage", "setting": "Fmoc-AAAA-Indoxyl ester", "result": 0}, {"measurement": "Porcine Elatase Cleavage", "setting": "[6]", "result": 0}, {"measurement": "Porcine Elatase Cleavage", "setting": "[7]", "result": "++"}, {"measurement": "Porcine Elatase Cleavage", "setting": "Fmoc-AAAPM-RBB", "result": 0}, {"measurement": "Porcine Elatase Cleavage", "setting": "Fmoc-AAPA-Indoxyl ester", "result": "+++"}, {"measurement": "Porcine Elatase Cleavage", "setting": "Fmoc-AAPVA-RBB", "result": "+++"}, {"measurement": "Porcine Elatase Cleavage", "setting": "Fmoc-APV-Indoxyl ester", "result": "+"}, {"measurement": "Porcine Elatase Cleavage", "setting": "H-AAPF-RBB", "result": "++"}, {"measurement": "Porcine Elatase Cleavage", "setting": "Fmoc-AAPF-Indoxyl ester", "result": "+"}, {"measurement": "Porcine Elatase Cleavage", "setting": "[8]", "result": "+"}, {"measurement": "Porcine Elatase Cleavage", "setting": "[9]", "result": "+"}, {"measurement": "Porcine Elatase Cleavage", "setting": "Fmoc-AAA-indoxyl ester", "result": "++"}, {"measurement": "Porcine Elatase Cleavage", "setting": "[10]", "result": "+"}, {"measurement": "release of A-CV, mass peak", "setting": "[11]", "result": "Treatment with porcine and human elastase releases A-CV, as proven by the appearance of a mass peak at m/z=484"}, {"measurement": "Porcine Elatase Cleavage", "setting": "Fmoc-AAPFA-RBB", "result": "+"}, {"measurement": "Porcine Elatase Cleavage", "setting": "H-AAPVA-RBB", "result": "+++"}, {"measurement": "Porcine Elatase Cleavage", "setting": "H-AAAPM-RBB", "result": 0}, {"measurement": "Porcine Elatase Cleavage", "setting": "Fmoc-AAPV-(2-Napthol)", "result": "++"}, {"measurement": "Porcine Elatase Cleavage", "setting": "[12]", "result": 0}, {"measurement": "Porcine Elatase Cleavage", "setting": "H-AAPFA-RBB", "result": "+++"}, {"measurement": "Porcine Elatase Cleavage", "setting": "[13]", "result": "+++"}, {"measurement": "Porcine Elatase Cleavage", "setting": "[14]", "result": 0}, {"measurement": "Porcine Elatase Cleavage", "setting": "[15]", "result": "+++"}, {"measurement": "Porcine Elatase Cleavage", "setting": "[16]", "result": 0}, {"measurement": "Porcine Elatase Cleavage", "setting": "[17]", "result": 0}, {"measurement": "Porcine Elatase Cleavage", "setting": "H-AAPVAA-RBB", "result": "++"}, {"measurement": "Porcine Elatase Cleavage", "setting": "CMC 9M31F-AAPFA-RBB", "result": "++"}]}]}
